This is one part of the list. The energies were worked out here from pooled read counts, against the library average; single values are noisy.
The sequences below were run against T1, Pho4 (S. cerevisiae) (UniProt P07270) (assay: relative binding free energy (BET-seq); higher = weaker binding). Settings: reference: library average.
T1 sequence: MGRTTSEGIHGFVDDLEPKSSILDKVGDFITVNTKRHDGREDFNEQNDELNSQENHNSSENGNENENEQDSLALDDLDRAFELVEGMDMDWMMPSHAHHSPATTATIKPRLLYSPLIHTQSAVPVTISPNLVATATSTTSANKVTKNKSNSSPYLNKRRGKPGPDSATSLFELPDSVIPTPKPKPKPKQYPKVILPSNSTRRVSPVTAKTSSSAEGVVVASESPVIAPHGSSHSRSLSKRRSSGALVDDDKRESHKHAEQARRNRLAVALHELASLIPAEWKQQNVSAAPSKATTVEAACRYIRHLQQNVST

Relative binding free energy, -0.1 kcal/mol:
ATTTGCACGTGGTGAG, GTATGCACGTGCGGTA, TTATGCACGTGTGCTA, CGTAACACGTGGTTGG

Relative binding free energy, -0.08 kcal/mol:
TGCGACACGTGGTATG, GTGAGCACGTGGAGTG, TTTAGCACGTGTATTC

Relative binding free energy, 0.04 kcal/mol:
TTGGTCACGTGGCGCA, AGGGTCACGTGCATTG, TTGTGCACGTGGTAAT, TCTGTCACGTGGTATT, TTAAGCACGTGATGTC

Relative binding free energy, 0.19 kcal/mol:
GCTGTCACGTGTGGTT, AGTGTCACGTGAAGTA, TTACTCACGTGTGGGC, AGGCTCACGTGTATGT, TGTATCACGTGTGAGT, AGCTGCACGTGAGAGG

Relative binding free energy, 0.1 kcal/mol:
AAGATCACGTGTTGTA, TTGATCACGTGTTTGT, GGGAACACGTGGACGT, ATCAGCACGTGAGGGG, CGGCGCACGTGGTAAG, AATGGCACGTGAGATT

Relative binding free energy, -0.05 kcal/mol:
ATGTACACGTGGGTTC, AAAAGCACGTGTTATG

Relative binding free energy, 0.2 kcal/mol:
GTCGTCACGTGTCGGA, AGGTTCACGTGGGGAA

Relative binding free energy, 0.13 kcal/mol:
CGGCTCACGTGGGATT, TATGACACGTGTGGTC, CGGAGCACGTGACGTG, TGGGTCACGTGATGTT, GTTGACACGTGAGTAT

Relative binding free energy, -0.23 kcal/mol:
AGAGGCACGTGTATGG

Relative binding free energy, 0.36 kcal/mol:
GTCTTCACGTGTGGTC, ATTTTCACGTGACGAT

Relative binding free energy, 0.23 kcal/mol:
AGGATCACGTGGTGAC, TCTGCCACGTGAAGGT

Relative binding free energy, -0.01 kcal/mol:
ATGCACACGTGGAGTG, TGCGGCACGTGGAATT, GTTGGCACGTGTCCGG, TATTCCACGTGGGGAA, ACTTGCACGTGGCGGT, ATCTGCACGTGGGTTT

Relative binding free energy, -0.34 kcal/mol:
AGGCGCACGTGGGGCT

Relative binding free energy, 0.17 kcal/mol:
GGGATCACGTGTCTTG, TGGTTCACGTGCTAAT, TGTCTCACGTGTATTA, GCGTTCACGTGGAGGT

Relative binding free energy, 0.11 kcal/mol:
GTGATCACGTGGTAGA, TTTATCACGTGTGATC, CGTGTCACGTGGAGAG, CTAGTCACGTGTGCGG, ATATGCACGTGTAATG

Relative binding free energy, -0.13 kcal/mol:
AGTAACACGTGGTAGT, TGCGGCACGTGTATAT, TTGGGCACGTGGTGCG

Relative binding free energy, 0.14 kcal/mol:
GGTAACACGTGGAGCT, GTAATCACGTGGGAAG, TTCAGCACGTGAAGGG, GGTTACACGTGCTTAG, GTAGTCACGTGTTTAG, TGAAACACGTGATAGT, GTCTTCACGTGGCGTG, AGACTCACGTGGGTTA

Relative binding free energy, 0.32 kcal/mol:
TGATACACGTGAATAT, CTTTTCACGTGAGTTT, TAGGTCACGTGAGTAA

Relative binding free energy, 0.16 kcal/mol:
GTTTCCACGTGGTCGG, TCTATCACGTGGGGAT, TATGTCACGTGTGGGA, AGGGTCACGTGTGGCA, TGAATCACGTGATTAG

Relative binding free energy, 0 kcal/mol:
AGGTCCACGTGCGGAG, GTTAACACGTGTGCGG, TTGTACACGTGCGAGG, CGGGTCACGTGCAGGG, TGGGACACGTGGTTCA, TTAATCACGTGGTGCA, TCGGACACGTGGGGCG, ATCGGCACGTGCTTTG

Relative binding free energy, 0.43 kcal/mol:
GATTTCACGTGTTATG

Relative binding free energy, 0.08 kcal/mol:
TTTAACACGTGTTGGG, GGGGTCACGTGCGGAT, CGTGGCACGTGAGTTG, TTTGACACGTGTTGGC

Relative binding free energy, 0.29 kcal/mol:
GGAATCACGTGATGTT, TATTTCACGTGTCATA, TGGGTCACGTGAGTAA, CGTTTCACGTGGCGGA, TTGAACACGTGAAGTG

Relative binding free energy, -0.17 kcal/mol:
GAGTGCACGTGGCGGC, TGCGGCACGTGGTTAG

Relative binding free energy, 0.18 kcal/mol:
TTAATCACGTGTCGGA

Relative binding free energy, 0.03 kcal/mol:
GGAGTCACGTGTGCGT, CTTAGCACGTGTGAGG, TAGTGCACGTGTTGGT, CGGTGCACGTGCTGGC, CTGGACACGTGTAGGT

Relative binding free energy, 0.06 kcal/mol:
GAAGGCACGTGGAGCT, GCGGTCACGTGTGTAA, GGCGTCACGTGGTGCT, CTGTACACGTGGGAAG, GTGGTCACGTGCATAT, TGTTGCACGTGTATTG

Relative binding free energy, 0.25 kcal/mol:
TTTGTCACGTGATCCT, GTCGTCACGTGTAAGG, TGCTACACGTGATATG, ATCTTCACGTGTGTTT, AGGTTCACGTGTGAAT, TTAGTCACGTGAGCTA, TAGATCACGTGACGTG

Relative binding free energy, -0.11 kcal/mol:
AGAGCCACGTGTGGGT, TTAAGCACGTGTTTTC

Relative binding free energy, -0.02 kcal/mol:
TTGCGCACGTGATGGA, TGCAACACGTGGGTCG, CTGTGCACGTGCGGGT, TAGGACACGTGTATGA, TATGGCACGTGTACGA, CGGTACACGTGGTGTT, TCGAGCACGTGTTTAG, GTATCCACGTGTTGGG, GATTGCACGTGTATGT

Relative binding free energy, -0.04 kcal/mol:
GGTTGCACGTGTCGTA, TTTAGCACGTGTTATA, ATTCGCACGTGTGTTT, TTTAGCACGTGATTCA, TGGAGCACGTGGGTGC, TTAACCACGTGTGTTT

Relative binding free energy, -0.26 kcal/mol:
TTCAGCACGTGGGTGT

Relative binding free energy, -0.09 kcal/mol:
TGTGACACGTGGTCTC, GTGGGCACGTGTGAAC, ATTGGCACGTGCGGTG

Relative binding free energy, 0.02 kcal/mol:
CGCTACACGTGGTGGG

Relative binding free energy, 0.05 kcal/mol:
GGGTGCACGTGTTAGT, ATAGACACGTGTGTGA, AGAGGCACGTGAGATG, AGTAACACGTGGAGTT, CTTTACACGTGTTTAG

Relative binding free energy, -0.07 kcal/mol:
AGCGACACGTGGCGGT, TACATCACGTGGGGTG, CGTGTCACGTGGGGTC, GTCAGCACGTGGGTTT

Relative binding free energy, 0.26 kcal/mol:
TAGGTCACGTGGAATG, TCGTTCACGTGTTGAG, TATCACACGTGTTGCT, GCGTGCACGTGAGTAT, GAGTGCACGTGATGTG

Relative binding free energy, 0.31 kcal/mol:
TTTTTCACGTGGCGGT

Relative binding free energy, 0.15 kcal/mol:
TCATTCACGTGGGGTA, GGTTGCACGTGATTGC, GAGGACACGTGGATAG, TTCATCACGTGATGTA

Relative binding free energy, -0.25 kcal/mol:
AGGGACACGTGGCGTG

Relative binding free energy, -0.22 kcal/mol:
TGGGGCACGTGGTCGA

Relative binding free energy, -0.18 kcal/mol:
CGATGCACGTGGGGTT

Relative binding free energy, 0.27 kcal/mol:
TGTTTCACGTGGAATA, TATTTCACGTGCTGCT, AAGTTCACGTGGTCGA, TGTTCCACGTGAAGTT

Relative binding free energy, 0.01 kcal/mol:
GGAGGCACGTGTGACT, TTCGTCACGTGGAGAT, GTAAACACGTGGTGGG

Relative binding free energy, -0.03 kcal/mol:
TGCGGCACGTGTTCGT, GTTGGCACGTGTCAGA, CTGCTCACGTGGAGGG, ATGTGCACGTGCAAGT, TCTTGCACGTGTTGCG

Relative binding free energy, 0.24 kcal/mol:
TTATTCACGTGCTGAG, GAGCTCACGTGGTGTT, ATGGTCACGTGAGGTA

Relative binding free energy, -0.06 kcal/mol:
GAGAGCACGTGTTAAG

Relative binding free energy, 0.3 kcal/mol:
TCTTTCACGTGTAATG, GGTTTCACGTGTCGGA

Relative binding free energy, -0.2 kcal/mol:
TATAACACGTGGGCGT, ATGGACACGTGGGCAG

Relative binding free energy, 0.51 kcal/mol:
AAGTTCACGTGTGTAC

Relative binding free energy, 0.09 kcal/mol:
GATGTCACGTGTAAAG, TGTTCCACGTGGATGT

Relative binding free energy, -0.31 kcal/mol:
CGGGGCACGTGCGGCT

Relative binding free energy, -0.21 kcal/mol:
GCTGGCACGTGGTTAT, TATAACACGTGCGTGT

Relative binding free energy, 0.33 kcal/mol:
GTATTCACGTGGAGTT, TATTACACGTGAGGTA, TGAGTCACGTGAAGTC, TTGCACACGTGAAGTT, TGGATCACGTGTTAGC

Relative binding free energy, -0.12 kcal/mol:
TGCTGCACGTGGGTTA, CGGGGCACGTGTTCAG, GTAGGCACGTGGGTGT, GTTACCACGTGGGTGC

Relative binding free energy, -0.14 kcal/mol:
AGATGCACGTGGTGCA, GTTGCCACGTGCGGGG, AGTAGCACGTGTTGCT, ACTGGCACGTGGGGCA

Relative binding free energy, 0.22 kcal/mol:
TTACTCACGTGTATGG, TTTATCACGTGATAAT

Relative binding free energy, 0.45 kcal/mol:
GTCTTCACGTGATATG

Relative binding free energy, -0.19 kcal/mol:
GGAGGCACGTGCAGGA, TTGAGCACGTGGTAAA, GGTGTCACGTGGGCCA

Relative binding free energy, 0.56 kcal/mol:
TCGATCACGTGAGGTT

Relative binding free energy, 0.38 kcal/mol:
GATTTCACGTGGTACG, GTTCTCACGTGGACGG

Relative binding free energy, -0.15 kcal/mol:
TCGGGCACGTGGTTGA, TGTGGCACGTGATCGA, GGGGCCACGTGCGGTT, CTGAGCACGTGGGTAG

Relative binding free energy, 0.34 kcal/mol:
GTGGTCACGTGATATT, GGGTTCACGTGGATGT, GTTCACACGTGATAGG, TGTTTCACGTGGAGTG

Relative binding free energy, 0.12 kcal/mol:
AGTTGCACGTGAGCAT, GTGGACACGTGTTAGA, TAAATCACGTGTGGTA, AATGTCACGTGCATTT, GGGCTCACGTGGGTTG

Relative binding free energy, -0.16 kcal/mol:
AATGGCACGTGTTTGA, GGTGGCACGTGGTAGA, GGAGGCACGTGGAATG, AATGGCACGTGGTCGG, GATGGCACGTGGGAGC, GTGCCCACGTGGTGGG, CCAGTCACGTGGGGGT

Relative binding free energy, -0.3 kcal/mol:
CGAGGCACGTGGGGGG

Relative binding free energy, 0.07 kcal/mol:
ATTTACACGTGGCTTT, GAGTGCACGTGATTGG, GGGGGCACGTGATCAA, GGGGTCACGTGGCGTA, AAGGACACGTGATGTG
